Data as given in PubChem BioAssay (NCI).
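Briefly, cells in 96-well plates were exposed to five compound concentrations for 48 h, and endpoints were estimated by linear interpolation. GI50 marks 50% less growth.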 Some entries of the source have several records that differ or are many. They are shown here; other results are not. The source may hold further records. For part of these data: Records of one sample usually come from different ranges of test concentrations, not given here; a value can be the end of its range. For part of these data: Values that stand side by side repeat one measurement (runs, samples, wells, individuals or studies). Records carry a tag for their origin. Letters hold for one entry only.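 TGI marks complete inhibition of growth.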

Columns and labels:
Experiment in all cases: NCI tumour cell line growth inhibition, 48 h
786-0 renal = tested on: 786-0 renal
CCRF-CEM leukemia = tested on: CCRF-CEM leukemia
HOP-62 NSCLC = tested on: HOP-62 NSCLC
HS 578T breast = tested on: HS 578T breast
K-562 leukemia = tested on: K-562 leukemia
HOP-92 NSCLC = tested on: HOP-92 NSCLC
OVCAR-3 ovarian = tested on: OVCAR-3 ovarian
SK-MEL-28 melanoma = tested on: SK-MEL-28 melanoma
SNB-75 CNS = tested on: SNB-75 CNS
SR leukemia = tested on: SR leukemia
COLO 205 colon = tested on: COLO 205 colon
EKVX NSCLC = tested on: EKVX NSCLC

For `CC(C)C[C@@H](NC(=O)[C@@H](Cc1ccccc1)NC(=O)c1cnccn1)B1O[C@H]2[C@H](O)[C@@H](C(=O)NCCCC[C@@H]3NC(=O)[C@@H](Cc4ccccc4)NC(=O)[C@H](CC(=O)O)NC(=O)CNC(=O)[C@H](CCCN=C(N)N)NC3=O)O[C@@H](CN)[C@H]2O1`, the TGI (786-0 renal) was 57.4 nM and 2.06 µM, the TGI (CCRF-CEM leukemia) was 146 nM and > 50 µM and the TGI (HOP-62 NSCLC) was 46.6 nM and 524 nM. The TGI (HS 578T breast) was 105 nM and > 50 µM and the TGI (K-562 leukemia) was 118 nM and > 50 µM.
For `COC(=O)/C=C/c1cc(O)c2c(c1)C(C(=O)OC)C(c1ccc(O)c(O)c1)O2` (stereo not given), the GI50 (HOP-92 NSCLC) was 5.51 µM [sample A, mean of 2 tests] and 266 nM [sample B, 1 test], the TGI (OVCAR-3 ovarian) was 19.3 µM [sample A] and 120 nM [sample B] and the GI50 (SK-MEL-28 melanoma) was 174 nM [sample A, mean of 2 tests] and 2.63 µM [sample B, 1 test]. The GI50 (SNB-75 CNS) was 389 nM [sample A, mean of 2 tests] and 35.4 nM [sample B, 1 test].
In the case of `COc1ccc(C(=O)/C=C/c2ccc(O)c(O)c2F)c(OC)c1`, the TGI (OVCAR-3 ovarian) is reported as 3.77 µM and 43.2 µM and the TGI (SR leukemia) is reported as 75 µM and 3.4 µM.
For `CCC/C(=N\NC(=S)N1CCN(c2ccccn2)CC1)c1ccccn1`, the TGI (COLO 205 colon) was 43.5 nM and 1.35 µM, the TGI (EKVX NSCLC) was 216 nM and 2.43 µM and the TGI (HOP-92 NSCLC) was > 10 µM and 743 nM. For the same compound, the GI50 (SNB-75 CNS) was 396 nM and 23.8 nM.
